Measurements: the RNAGym collection of RNA variant scans (doi:10.1101/gad.245936.114)
Variants at the floor of the assay are shown more often than the library holds them.

B1: tRNA (parent)
chain: CUCUCGGUAGCCAAGUUGGUUUAAGGCGCAAGACUUUAAUUUAUCACUACGAAAUCUUGAGAUCGGGCGUUCGACUCGCCCCCGGGAGAUUUUUUCCUCGAGCAA

Variants of: B1
Test: nonsense suppression (GFP-seq) (ratio to wild type); higher = more function; SUP4oc tRNA, yeast GFP reporter sort-seq
How it was run: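 Yeast carrying genome-integrated SUP4oc tRNA variants from a library with ~3% random mutations were grown in raffinose/galactose medium with 80 mg/L adenine. Each strain also carried a galactose-driven GFP ochre reporter and RFP. Cells were sorted into GFP/RFP bins, and each bin was Illumina-sequenced (phred ≥30). Nonsense suppression (GFPSEQ) is the bin median GFP/RFP, weighted by each variant's estimated cell share per bin, relative to wild-type SUP4oc; variants needed ≥100 reads and ≥30 cells.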

CUCUCGGUAGCCAAGUUGGUUUAAGGCACAAGACUUUAAUUUAUCACUACGAAAUCUUGAGAUCGGGCGUUCGACUCGCCCCCCGGAGAUUUUUUCCUCGAGCAA [G28A G84C] and CUCUCGGUAGCCAAGUUGGUUUAAGGCACAAGACUUUAAUUUAUCACUACGAAAUGUUGAGAUCGGGCGUUCGACUCGCCCCCGGGAGAUUUUUUCCUCGAGCAA [G28A C56G] cannot be ordered by nonsense suppression: ≤ 0.026 for the first, ≤ 0.026 for the second.

Going from CUCUCGGUAGCCAAGUUGGUUUAAGGUGCAAGACGUUAAUUUAUCACUACGAAAUCUUGAGAUCGGGCGUUCGACUCGCCCCCGGGAGAUUUUUUCCUCGAGCAA [C27U U35G] to CUCUCGGUAGCCAAGUUGGUUUAAGGCACAAGACUUUAAUUUAUCACUACGAAAUCUUGAGAUCGGGCGUUCGAGUCGCCCCCGGGAGAUUUUUUCCUCGAGCAA [G28A C75G], the nonsense suppression rises from ≤ 0.026 to 1.02.

CUCUCGGUAGCCAAGUUGGUUUAAGGUGCAAGACUUUAAUUUAUCACUACGAAAUCUAAAGAUCGGGCGUUCGACUCGCCCCCGGGAGAUUUUUUCCUCGAGCAA [C27U U58A G59A] and CUCUCGGUAGCCAAGUUGGUUUAAGGCACAAGACUUUAAUUUAUCACUACGAAAUCUUGAGAUCGGGCGUUCGACUCGCCCCCGGGAGCUUUUUUCCUCGAGCAA [G28A A89C] cannot be ordered by nonsense suppression: ≤ 0.026 for the first, ≤ 0.026 for the second.

CUCUCGGUAGCCAAGUUGGUUUAAGGCACAAGACUUUAAUUUAUCACUACGAAAUCUUGAGAUCGGGCGUUCGCCUCGGCCCCGGGAAAUUUUUUCCUCGAGCAA [G28A A74C C79G G88A] and CUCUCGGUAGCCAAGUUGGUUUAAGGCACAAGAGUUUAAUUUAUCACUACGAAAUCUUAAGAUCGGGCGUUCGACUCGCCCCCGGGAGAUUUUUUCCUCGAGCAA [G28A C34G G59A] cannot be ordered by nonsense suppression: ≤ 0.026 for the first, ≤ 0.026 for the second.

CUCUCGGUAGCCAAGUUGGUUUAAGGCACAAGACUUUAAUUUAUCACUACGAAAUCUUCUGACCGGGCGUUCAACUCGCCCCCGGGAGAUUUUUUCCUCGAGCAA [G28A G59C A60U U63C G73A] and CUCUCGGUAGCCAAGUUGGUUUAAGGCACAAAACUUUAAUUUAUCACUACGAAAUCUUGAGAUCGGGCGUUCGACUCGCCCCCGGGAGAUUUUUUCCUCGAGCAA [G28A G32A] cannot be ordered by nonsense suppression: ≤ 0.026 for the first, ≤ 0.026 for the second.

CUCUCGGUAGCCAAGUUGGUUUAAGGCAUAAGACUUUAAUUUAUCACUACGAAAUAUUGAGAUCGGGCGCUCGACUCGCCCCCGGGAGAUUUUUUCCUCGAGCAA [G28A C29U C56A U70C] and CUCUCGGUAGCCAAGUUGGUUUAAGGUGCAAGACUUUAAUUUAUCACUACGAAAUCUAGAGAUCGGGCGUUCGACUCGCCCCCGGGAGAUUUUUUCCUCGAGCAA [C27U U58A] cannot be ordered by nonsense suppression: ≤ 0.026 for the first, ≤ 0.026 for the second.

Going from CUCUCGGUAGCCAAGUUGGUUUAAGGCACAAGACUUUAAUUUAUCACUACGAAAUCUUGAGAUCAGGGGUUCGACUCGCCCCCGGGAGAUUUUUUCCUCGAGCAA [G28A G65A C68G] to CUCUCGGUAGCCAAGUUGGUUUAAGGCACAGGACUUUAAUUUAUCACUACGAAAUCUUGAGAUCGGGCGUUCGACUCGCCCCCGGGAGAUUUUUUCCUCGAGCAA [G28A A31G], the nonsense suppression rises from ≤ 0.026 to 0.98.

CUCUCGGUAGCCAAGUUGGUUUAAGGCACAAGUCUUUAAUUUAUCACUACGAAUUCUUGAGAUCGGGCGUUCGACUAGCCCCCGGGAGAUUUUUUCCUCGAGCAA [G28A A33U A54U C77A] and CUCUCGGUAGCCAAGUUGGUUUAAGGUGCAAGACUUUAAUUUAUCACUACGAAAUCAUGAGAUCGGGCGUUCGACUCGCCCCCGAGAGAUUUUUUCCUCGAGCAA [C27U U57A G85A] cannot be ordered by nonsense suppression: ≤ 0.026 for the first, ≤ 0.026 for the second.

CUCUCGGUAGCCAAGUUGGUUUAAGGCACAAGACUUUAAUUUAUCACUACGAAAUGUUGAGAUCGGGCGUUCGACUCGCCCCCGGGAGCUUUUUUCCUCGAGCAA [G28A C56G A89C] and CUCUCGGUAGCCAAGUUGGUUUAAGGCAAAAGACUUUAAUUUAUCACUACGAAAUCUUGAGAUCGGGCGUUCGACUCGCCCCCGGGAGCUUUUUUCCUCGAGCAA [G28A C29A A89C] cannot be ordered by nonsense suppression: ≤ 0.026 for the first, ≤ 0.026 for the second.

Compared with CUCUCGGUAGCCAAGUUGGUUUAAGGCACAAGACUUUAAUUUAUCACUACGAAAUCUUGAGAUCGAGCGUUCGACUCGCCCCCGGGAGAUUUUUUCCUCGAGCAA [G28A G66A], CUCUCGGUAGCCAAGUUGGUUUAAGGCACAAAACUUUAAUUUAUCACUACGAACUCUUGAGAUCGGGCGUUCGACUCGCCCCCGGAAGAUUUUUUCCUCGAGCAA [G28A G32A A54C G86A] is lower in nonsense suppression: 0.152 for the first, ≤ 0.026 for the second.

CUCUCGGUAGCCAAGUUGGUUUAAGGUGCAAGACUUUAAUUUAUCACUACGAAAUCUUGAGAUCGGGCGUUCGACACGCCCCCGGGAGAUUUUUUCCUCGAGCAA [C27U U76A] and CUCUCGGUAGCCAAGUUGGUUUAAGGCACAAGAGUUUAAUUUAUCACUACGAAAUCUUGAGAUCGGGUGUUCGUCUCGCCCCCGGGAGAUUUUUUCCUCGAGCAA [G28A C34G C68U A74U] cannot be ordered by nonsense suppression: ≤ 0.026 for the first, ≤ 0.026 for the second.

CUCUCGGUAGCCAAGUUGGUUUAAGGCACAGGACUUUAAUUUAUCACUACGAAAUCUUGAGAUCGGGCGUUCGACGCGCCCCCGGGAGAUUUUUUCCUCGAGCAA [G28A A31G U76G] and CUCUCGGUAGCCAAGUUGGUUUAAGGCACAAGAAUUUAAUUUAUCACUACGAAAUCUUGAGAUCGGGCGUUCGACUCGCCCCCGGGAGAUUUUUUCCUCGAGCAA [G28A C34A] cannot be ordered by nonsense suppression: ≤ 0.026 for the first, ≤ 0.026 for the second.

CUCUCGGUAGCCAAGUUGGUUUAAGGCACAUGACUUUAAUUUAUCACUACGAAAUCUUGAGAUCGAGCAUUCGACUCGCCCCCGGGAGAUUUUUUCCUCGAGCAA [G28A A31U G66A G69A] and CUCUCGGUAGCCAAGUUGGUUUAAGGCACGAGAUUUUAAUUUAUCACUACGAAAACUGGAGAUCGGGCGUUCGACUCGCCCCCGGGUGAUUUUUUCCUCGAGCAA [G28A A30G C34U U55A U58G A87U] cannot be ordered by nonsense suppression: ≤ 0.026 for the first, ≤ 0.026 for the second.

For CUCUCGGUAGCCAAGUUGGUUUAAGGUGCAAGACUUUAAUUUAUCACUACGAAAUCUUGAGAUCGGGCGUUCGACCCGCCCCCGGGAGUUUUUUUCCUCGAGCAA [C27U U76C A89U], the nonsense suppression was ≤ 0.026.
